Data on 109 sequences can be found in the supplement of paper PMC3334620.

The full ranking holds about 33,000 sequences; the median of “E-score (-0.5 to 0.5)” is about -0.011, and the highest 2% start at about 0.28. This is one part of the list.

This experiment addresses T1, Gcr1 (UniProt P07261).
T1 sequence: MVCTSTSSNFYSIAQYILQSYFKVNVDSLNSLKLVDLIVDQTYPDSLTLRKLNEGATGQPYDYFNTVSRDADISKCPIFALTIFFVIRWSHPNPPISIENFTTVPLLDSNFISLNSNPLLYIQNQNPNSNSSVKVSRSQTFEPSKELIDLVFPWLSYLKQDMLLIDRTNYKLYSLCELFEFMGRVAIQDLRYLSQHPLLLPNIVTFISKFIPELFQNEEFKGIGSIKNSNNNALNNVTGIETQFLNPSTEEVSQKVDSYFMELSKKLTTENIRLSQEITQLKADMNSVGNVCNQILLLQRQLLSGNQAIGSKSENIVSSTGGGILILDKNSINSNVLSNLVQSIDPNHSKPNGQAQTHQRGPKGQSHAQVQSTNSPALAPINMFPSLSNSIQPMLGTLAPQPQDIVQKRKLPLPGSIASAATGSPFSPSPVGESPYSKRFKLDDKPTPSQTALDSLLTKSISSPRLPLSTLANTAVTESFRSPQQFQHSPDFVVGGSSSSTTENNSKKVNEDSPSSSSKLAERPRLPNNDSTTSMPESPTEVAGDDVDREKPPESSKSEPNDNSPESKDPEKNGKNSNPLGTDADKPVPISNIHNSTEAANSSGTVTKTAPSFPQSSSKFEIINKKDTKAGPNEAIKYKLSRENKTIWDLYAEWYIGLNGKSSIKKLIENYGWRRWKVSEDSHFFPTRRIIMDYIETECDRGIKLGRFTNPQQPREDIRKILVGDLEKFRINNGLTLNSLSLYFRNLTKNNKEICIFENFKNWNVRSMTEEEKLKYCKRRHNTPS
The experiment in a line: PBM E-score (8-mer binding enrichment) (E-score (-0.5 to 0.5)); higher = stronger / more preferred TF binding; most listed sequences are background and not binding sites. To be noted: protein concentration: 100 nM; construct: GST-full length. An outline of the steps: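 Full-length yeast transcription factors or their DNA-binding domains, GST-tagged and expressed with PURExpress, were applied at about 100-200 nM to universal all-10-mer Agilent arrays. These arrays had been made double-stranded by primer extension on fresh or once-stripped slides. Detection used fluorescent anti-GST, normalisation used masliner, and E-scores for ungapped eight-base words pooled with reverse complements came from the Universal PBM Analysis Suite.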
Consider GTTTTCTA, for which the “PBM E-score” value came to 0.0859.

Consider ATAATCCG, for which the “PBM E-score” value is -0.079. In the case of GCAGCAGA it was -0.135; in that of ATCTGTGG, 0.0552. For GCGTTACA the value was -0.105.

With CCTTTCAC, the “PBM E-score” value is -0.0596. In the case of ATTGGCCG it was -0.0518; in that of AGCGTGAT, -0.149; in that of GTACGTCA, -0.127. For TACAGGAA the value was 0.394; for CTACCTTA, 0.197; for ATGATTCG, 0.0357. In the case of GAGTTCTA it was 0.0617; in that of GCGTTTCC, -0.185; in that of AGTCGTAG, -0.0469. For the sequence GCATATTA, the “PBM E-score” value is -0.0298. Regarding CCTTGGCC, the “PBM E-score” value is -0.327. On to CAACGCTC, for which the “PBM E-score” value was -0.313. Turning to CAGAGGAG, the “PBM E-score” value is -0.123. For ATTTGCAG the value was -0.0239. In the case of GCGTTCCA it was 0.112; in that of CCGCCCAA, -0.0971; in that of AGGCGAAG, 0.0258. In the case of CAGACGCC it was 0.329; in that of CAGCATAA, -0.0294; in that of CCTAAATC, 0.306. On to CATAAAAA, for which the “PBM E-score” value worked out at 0.137. For GGATTCAA the value was -0.128; for AAACATCG, -0.0599. As to CTTGTTGA, the “PBM E-score” value was -0.138. AATTCTAA: the “PBM E-score” value worked out at 0.17.

As for TGGGGAAA, the “PBM E-score” value came out at 0.0107. In the case of CGGTCCTA it was -0.11. In the case of ACATTGCT it was 0.0699; in that of GACGTTCC, 0.0203; in that of GAATACTA, 0.0997. In the case of ATAGGTTA it was 0.203.

Regarding AGTAGACT, the “PBM E-score” value was -0.048. In the case of AACACCTT it was -0.0171; in that of GACGAGGC, -0.246; in that of TCTTCCAA, -0.0111.

With TAGCCACA, the “PBM E-score” value stood at 0.032. For ACATTCTC the value was -0.175; for ACCCAGAC, 0.0501. As for ACACCGCG, the “PBM E-score” value was -0.19. In the case of GAACCGGC it was -0.0192. For CCTTATCA the value was 0.0532; for CCTGTGAG, -0.218; for CTAGGTTC, 0.193. In the case of GGTACACA, the “PBM E-score” value was -0.189. For the sequence CACAGATG, the “PBM E-score” value was -0.188.

On to CAGGAGAA, for which the “PBM E-score” value was -0.117. Turning to AATCCGTG, the “PBM E-score” value is -0.064. Regarding CGTGCGGA, the “PBM E-score” value was -0.122. In the case of CATTGTGC it was -0.141; in that of TACTAACA, 0.0643; in that of CGGCGGCC, 0.246. In the case of CAAAGTTC it was -0.117; in that of CTTATTAA, 0.149. For AGTATTCG the value was 0.175.

On to CAGGGCAG, for which the “PBM E-score” value was -0.263. In the case of AATCGGCT it was 0.169; in that of GCCCATCC, -0.141.

With ACAAGGCA, the “PBM E-score” value is -0.21.

As for CAGCCACG, the “PBM E-score” value was found to be 0.12. In the case of GTACACAC it was -0.105; in that of AGTCTCAA, -0.0832; in that of GAGTGGCA, -0.0587. For ACTACCTG the value was 0.0272; for CCTGAGCA, 0.0217. For ACTACCAC the value was 0.101; for AATCCGTC, -0.0275. Consider GAACGGGA, for which the “PBM E-score” value amounted to 0.00857. For ACCCAAGC the value was -0.289.

Regarding CGAAGAAG, the “PBM E-score” value is -0.0934. Consider AGAAATCC, for which the “PBM E-score” value is -0.0373. Turning to AGGGATTA, the “PBM E-score” value is -0.15. In the case of AAACTCTT it was -0.106; in that of CTAGTGCC, -0.0209. For GACAAGGA the value was -0.0541; for CCTTGGAA, 0.0283. Regarding GTGGCGGA, the “PBM E-score” value stood at 0.0346.

For AGGATACA, the “PBM E-score” value amounted to 0.0888.

AGTGGTAA: the “PBM E-score” value was -0.099. For CGTCCATC the value was 0.0501; for CGAAGATC, -0.1.

On to CGTCGAAG, for which the “PBM E-score” value is -0.144. Consider ACCTGTCG, for which the “PBM E-score” value was -0.319. In the case of GGCGTAAA it was 0.101; in that of ACCGTCGA, -0.249. In the case of ATTGAGAA it was 0.128; in that of AAAAGGCT, -0.0808; in that of CCGACATA, 0.0516.

As for ACTAGGTA, the “PBM E-score” value is -0.0397.

As to TGGGCCCA, the “PBM E-score” value was found to be 0.125. For TAACCAAA the value was -0.0086. For CTTGATGA the value was 0.13; for CTAAATAC, 0.227. In the case of TGACTAAA it was -0.0574; in that of CTCAGGAC, 0.182.

Turning to CACAAACC, the “PBM E-score” value was determined as 0.00896. For ATGCACGA the value was -0.189; for AACTACAT, -0.0174; for CCTCCAGG, -0.15. In the case of ACTTCTAT it was 0.0182; in that of ACGAACAG, -0.0794. In the case of CGCCGATC it was 0.111; in that of TGGGACAA, -0.108.

As for GCCAAAAA, the “PBM E-score” value was 0.288.
